Source: patent US7371766B2, “Curcumin analogs with anti-tumor and anti-angiogenic properties” (Emory University, priority 1999, dated 2008)
Read-outs that look alike come from different tables or passages of the source.

Assays:
NCI-H322M [1] = test: cells; settings: Homo sapiens, 48 h; for GI50: read-out: Median Growth Inhibitory Concentration (GI50); for CC50: read-out: Median Lethal Concentration (LC50)
NCI-H322M [2] = settings: for GI50: read-out: Median Growth Inhibitory Concentration (GI50), Non-Small Cell Lung Cancer, 48 hours

| Compound | GI50 (NCI-H322M [1]) | CC50 (NCI-H322M [1]) | GI50 (NCI-H322M [2]) | CC50 (NCI-H322M [2]; read-out: Median Lethal Concentration (LC50), Non-Small Cell Lung Cancer, 48 hours, SRB assay) |
| --- | --- | --- | --- | --- |
| CC(=O)O.O=C1C(=Cc2ccccc2F)CNCC1=Cc1ccccc1F [EF24, 3,5-Bis-(2-fluorobenzylidene)-piperidin-4-one-acetate] | 1.4 µM | 17 µM | – | – |
| 3,5-Bis(2-hydroxybenzylidene)-sulfone [EF11] | – | – | 36.5 µM | – |
| OC(CCc1ccc(F)cc1F)CCc1ccc(F)cc1F [EF19, 1,5-Bis(2,4-difluorophenyl)-pentan-3-ol] | 20.3 µM | 59.2 µM | – | – |
| CC1(/C=C/c2ccccc2O)C=Cc2ccccc2O1 (centres unmarked) [EF7] | 16.9 µM | 56 µM | – | – |
| O=C(C=Cc1ccc(F)cc1F)C=Cc1ccc(F)cc1F [EF9, 1,5-Bis(2,4-difluorophenyl)penta-1,4-dien-3-one] | 16.7 µM | 55.6 µM | – | – |
| O=C1C(=Cc2ccccc2O)COCC1=Cc1ccccc1O [EF25, 3,5-Bis(2-hyrdoxybenzylidene)tetrahydro4-H-pyran4-one] | – | – | 1.9 µM | 32.2 µM |
| C(=C\c1ccccc1)/S/C=C/c1ccccc1 [EF15] | – | – | > 100 µM | – |
| O=C1C(=Cc2ccccc2O)CCCC1=Cc1ccccc1O [EF4, 2,6Bis(2-hydroxybenzylidene)cyclohexanone] | 2.7 µM | 42.3 µM | – | – |
| COc1cc(/C=C/C(=O)CC(=O)/C=C/c2ccc(O)c(OC)c2)ccc1O [Curcumin] | 15.8 µM | 63.1 µM | – | – |
| N.N.[Cl][Pt][Cl] [Cisplatin, reference compound] | – | – | 1.3 µM | – |
